# Source: the supplement of paper PMC9446081
# Among all 39,000 compounds or so, about 220 (0.56%) showed activity. Some of the results follow.
# System: Escherichia coli K-12 BW25113
# Assay: relative growth (OD600 normalised to plate interquartile mean) (fraction); higher = less growth inhibition, active = 0.2 or less
# Details: 50 µM; LB; incubation time: overnight (16-24 h)
# 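Note: static incubation at 37 °C against the wild-type strain, values averaged over two biological replicates.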
row,Structure (SMILES),relative growth
1,CC(C)NC(=O)N(C)C[C@@H]1Oc2ccc(NC(=O)Cn3cnnn3)cc2C(=O)N([C@H](C)CO)C[C@H]1C,inactive: 0.977
2,COc1ccc(C#Cc2cccc(-c3nc(C(=O)N4CCN(Cc5ccccc5)CC4)cc4c3[C@H](CCO)N(S(=O)C(C)(C)C)C4)c2)cc1OC (stereo partly drawn),inactive: 1.05
3,C[C@H](CO)N1C[C@H](C)[C@H](CN(C)Cc2ccccc2)Oc2ccc(NC(=O)Nc3cccc4ccccc34)cc2CC1=O,inactive: 1.03
4,C[C@H]1CCCCO[C@@H](CN(C)Cc2ccc3c(c2)OCO3)[C@@H](C)CN([C@@H](C)CO)C(=O)c2cc(NC(=O)C3CCCCC3)ccc2O1,inactive: 0.979
5,O=C(C[C@@H]1CC[C@H](NS(=O)(=O)c2ccccc2)[C@H](CO)O1)NCc1ccncn1,inactive: 0.989
6,Cc1noc(C)c1NC(=O)N(C)C[C@H]1Oc2ccc(NC(=O)C3CC3)cc2C(=O)N([C@H](C)CO)C[C@@H]1C,inactive: 0.976
7,COc1ccc(NC(=O)Nc2ccc3c(c2)C(=O)N([C@H](C)CO)C[C@H](C)[C@@H](CN(C)CC2CCCCC2)OCCCC[C@H](C)O3)cc1,inactive: 0.965
8,C[C@H](CO)N1C[C@H](C)[C@H](CN(C)S(=O)(=O)c2ccccc2)Oc2ccc(NC(=O)Cc3ccccc3)cc2C1=O,inactive: 1
9,COc1cccc(S(=O)(=O)Nc2ccc3c(c2)OC[C@H](C)N(C(=O)Cc2cccnc2)C[C@@H](C)[C@@H](OC)CN(C)C3=O)c1,inactive: 0.978
10,Cc1noc(C)c1S(=O)(=O)Nc1ccc2c(c1)CC(=O)N([C@@H](C)CO)C[C@@H](C)[C@@H](CN(C)S(=O)(=O)c1ccc(Cl)cc1)O2,inactive: 1.04
11,COc1ccc(NC(=O)N(C)C[C@H]2OCCCC[C@@H](C)Oc3ccc(NC(=O)NC(C)C)cc3C(=O)N([C@@H](C)CO)C[C@H]2C)cc1,inactive: 1
12,CSc1cccc(NC(=O)/C=C/c2ccc(C(C)C)cc2)c1,inactive: 1.05
13,COc1ccc(C#Cc2cnc3c(c2)C(=O)N([C@H](C)CO)C[C@@H](C)[C@H](CN(C)CC2CCOCC2)O3)cc1,inactive: 0.995
14,C[C@H](CO)N1C[C@H](C)[C@H](CN(C)Cc2ccccc2)Oc2ccc(NC(=O)Cn3cnnn3)cc2C1=O,inactive: 1.03
15,COc1ccccc1NC(=O)N(C)C[C@@H]1Oc2ncc(Br)cc2C(=O)N([C@H](C)CO)C[C@H]1C,inactive: 1
16,Cc1ccc(S(=O)(=O)N2C[C@@H](O)COC[C@@H]3O[C@H](CC(=O)NCc4ccc(Cl)c(Cl)c4)CC[C@H]32)cc1,inactive: 1
17,C[C@H](CO)N1C[C@H](C)[C@@H](CN(C)C(=O)Nc2ccccc2)Oc2cc(C#C[C@@H](C)O)ccc2S1(=O)=O,inactive: 0.99
18,O=C(C[C@H]1CC[C@H](NC(=O)C2CC2)[C@H](CO)O1)NCCCN1CCOCC1,inactive: 0.992
19,CCCNC(=O)N(C)C[C@@H]1Oc2cc(-c3ccc(C)cc3)ccc2S(=O)(=O)N([C@@H](C)CO)C[C@@H]1C,inactive: 1

row,Structure (SMILES),relative growth
1,COc1ccc(CN(C)C[C@@H]2OCCCC[C@H](C)Oc3ccc(NC(=O)Nc4ccc(C(F)(F)F)cc4)cc3C(=O)N([C@H](C)CO)C[C@@H]2C)cc1,inactive: 0.969
2,C[C@@H]1CCCCO[C@@H](CN(C)S(=O)(=O)c2ccccc2)[C@H](C)CN([C@@H](C)CO)C(=O)c2cc(NC(=O)c3ccccc3)ccc2O1,inactive: 1.01
3,C[C@H]1CN([C@@H](C)CO)S(=O)(=O)c2ccc(C#CC3CC3)cc2O[C@H]1CN(C)C(=O)C1CCCCC1,inactive: 1.01
4,C[C@@H]1CN([C@H](C)CO)C(=O)c2cc(NC(=O)Nc3ccc4c(c3)OCO4)ccc2O[C@@H](C)CCCCO[C@@H]1CN(C)C(=O)NC1CCCCC1,inactive: 1.04
5,CO[C@H]1CN(C)C(=O)c2cc(NS(C)(=O)=O)ccc2OC[C@@H](C)N(C(=O)C2CCOCC2)C[C@@H]1C,inactive: 1
6,CC(C)NC(=O)Nc1cccc2c1O[C@H](CN(C)C(=O)Nc1ccc3c(c1)OCO3)[C@H](C)CN([C@H](C)CO)C2=O,inactive: 0.997
7,NC(=O)[C@@H]1CCOC1,inactive: 0.953
8,C[C@@H]1CN([C@H](C)CO)C(=O)Cc2cc(NC(=O)C3CC3)ccc2O[C@H]1CN(C)Cc1ccc(Oc2ccccc2)cc1,inactive: 0.988
9,COc1ccccc1OCC(O)CO (stereo not drawn),inactive: 1.11
10,C[C@H]1CN([C@@H](C)CO)C(=O)c2cccc(NC(=O)CCCCCC(=O)Nc3ccccc3N)c2O[C@H]1CN(C)C(=O)Nc1ccc(F)cc1,inactive: 0.959
11,COc1ccc(NC(=O)Nc2cccc3c2O[C@H](CN(C)CC2CCCCC2)[C@@H](C)CN([C@@H](C)CO)C3=O)cc1,inactive: 0.981
12,CC(C)CC#Cc1cnc2c(c1)C(=O)N([C@@H](C)CO)C[C@@H](C)[C@@H](CN(C)S(=O)(=O)c1ccccc1)O2,inactive: 0.993
13,C[C@H]1CN([C@@H](C)CO)C(=O)Cc2cc(NC(=O)CCC(F)(F)F)ccc2O[C@@H]1CN(C)Cc1ccc(-c2ccccc2)cc1,inactive: 1.02
14,COc1ccc(S(=O)(=O)Nc2ccc3c(c2)C(=O)N([C@@H](C)CO)C[C@H](C)[C@@H](CN(C)C(=O)NC(C)C)O3)cc1,inactive: 0.999
15,C[C@H](CO)N1C[C@H](C)[C@H](CN(C)S(=O)(=O)c2ccccc2)Oc2cc(Br)ccc2S1(=O)=O,inactive: 0.929
16,Cc1noc(C)c1S(=O)(=O)Nc1ccc2c(c1)C(=O)N([C@@H](C)CO)C[C@H](C)[C@H](CN(C)C(=O)Nc1ccccc1)OCCCC[C@H](C)O2,inactive: 1.01
17,CN1C(=O)c2cc(NC(=O)c3cnccn3)ccc2OC[C@H]2O[C@H](CC(=O)NCC3CCCCC3)CC[C@@H]21,inactive: 1.01
18,Cc1noc(C)c1NC(=O)N(C)C[C@H]1Oc2ccc(NC(=O)Cn3cnnn3)cc2C(=O)N([C@@H](C)CO)C[C@H]1C,inactive: 0.984
19,C[C@@H]1CN([C@@H](C)CO)C(=O)c2cc(NC(=O)NC3CCCCC3)ccc2O[C@@H](C)CCCCO[C@@H]1CN(C)Cc1ccc(C(=O)O)cc1,inactive: 1.03
